Assay results: the supplement of paper PMC7826260
The other results are listed elsewhere or left out. One pool of 16,384 single-stranded DNAs met each Rep nickase domain in vitro (3 µM enzyme, 1 h, 37 °C); shown is the middle of each 90-letter strand. A value is the log2 ratio of uncut reads to the pool without enzyme; uncut sequences lie near 0, cut ones below; no hit call is given. Shares of all reads are compared; where an enzyme cuts many sequences, the uncut ones exceed 0.

Each sequence was assayed on T1, Rep nickase domain of tomato golden mosaic virus (assay: uncleaved DNA left, log2 of reads against the no-enzyme library (log2 ratio); higher = less cleavage (more negative = more Rep cleavage of the k-mer); sequences stand for … in CTCGTCCG…ACCGGAGA).
T1 sequence (residues 1-124 of Rep, tag left off): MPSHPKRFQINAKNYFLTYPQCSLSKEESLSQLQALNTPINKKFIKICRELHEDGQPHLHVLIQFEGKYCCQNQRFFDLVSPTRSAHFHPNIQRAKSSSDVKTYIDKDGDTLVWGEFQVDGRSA
Procedure: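 A pool of 90-nt single-stranded DNAs with seven random bases just before the constant AC of the nick site (name = the seven bases) was cut by 3 µM recombinant His6-SUMO-tagged Rep nickase domain (300 nM DNA, 50 mM HEPES pH 8.0, 50 mM NaCl, 1 mM MnCl2, 1 h, 37 °C, three replicates). Uncut DNA was amplified and sequenced.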

| Sequence | uncleaved DNA left (log2) |
| --- | --- |
| AAATATT | -4.51 |
| TGTAAGC | -0.118 |
| CTATTTG | -0.0175 |
| TCGGCAG | 0.0867 |
| AGGATGA | -0.0591 |
| CTGAGTG | -0.127 |
| GTGAAAG | 0.209 |
| CGTCACA | -0.073 |
| AACCTGA | 0.191 |
| GTATGGA | 0.0634 |
| GAGTAGA | 0.061 |
| TCGGAAT | 0.174 |
| AGTAGAA | 0.157 |
| GATACGG | 0.156 |
| CCACCCA | -0.102 |
| CGGTAAC | 0.0229 |
| ACTAACA | 0.0173 |
| CCACCAG | -0.11 |
| GAGCGCT | -0.00338 |
| AATCGCA | 0.0196 |

| Sequence | uncleaved DNA left (log2) |
| --- | --- |
| ATAGTGC | -0.0246 |
| GTCTGCT | 0.0629 |
| GGACCGA | 0.108 |
| GTTTCTA | 0.126 |
| CCCTGGA | 0.00696 |
| TCTGTCG | -0.0522 |
| GACTGTC | 0.0759 |
| AGCTTGC | -0.0233 |
| ATTGAGG | 0.217 |
| CATGGGA | -0.221 |
| TCCTTGA | 0.0455 |
| TTCCTCG | -0.179 |
| TCGCCGA | -0.0964 |
| AGCATCT | 0.0798 |
| TACTCTC | -0.199 |
| GGATCTT | -0.089 |
| AAGCAGC | 0.0146 |
| TCGTGAC | -0.102 |
| ATCCGCA | -0.186 |
| TGAAGTT | -0.000458 |
